# In PubChem BioAssay AID488969 (Vanderbilt High Throughput Screening Facility, 2010):
# In all, about 110,000 compounds were measured (“z-score”: median about -0.1, highest 2% from about 2 on). The list shows a part of the results. Calls of active or inactive are those of the source.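 How the source made its calls: active means z-score in the third read window above 3 or below -3; inactive means the rest.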
# Target: Metabotropic glutamate receptor 8 (Rattus norvegicus) (UniProt P70579)
# Assay: mGluR8 Gi/Go-coupled signaling modulation – cell-based, rat, thallium flux, HTS, primary screen (AID 488969)
# Details: HEK293 rat mGluR8, GIRK (G protein-gated inwardly rectifying potassium channel) thallium flux, FluoZin2; at 10 µM; stronger effect = higher value; submaximal glutamate (EC20) added with thallium
# Chain of UniProt P70579 (P70579 whole entry, looked up): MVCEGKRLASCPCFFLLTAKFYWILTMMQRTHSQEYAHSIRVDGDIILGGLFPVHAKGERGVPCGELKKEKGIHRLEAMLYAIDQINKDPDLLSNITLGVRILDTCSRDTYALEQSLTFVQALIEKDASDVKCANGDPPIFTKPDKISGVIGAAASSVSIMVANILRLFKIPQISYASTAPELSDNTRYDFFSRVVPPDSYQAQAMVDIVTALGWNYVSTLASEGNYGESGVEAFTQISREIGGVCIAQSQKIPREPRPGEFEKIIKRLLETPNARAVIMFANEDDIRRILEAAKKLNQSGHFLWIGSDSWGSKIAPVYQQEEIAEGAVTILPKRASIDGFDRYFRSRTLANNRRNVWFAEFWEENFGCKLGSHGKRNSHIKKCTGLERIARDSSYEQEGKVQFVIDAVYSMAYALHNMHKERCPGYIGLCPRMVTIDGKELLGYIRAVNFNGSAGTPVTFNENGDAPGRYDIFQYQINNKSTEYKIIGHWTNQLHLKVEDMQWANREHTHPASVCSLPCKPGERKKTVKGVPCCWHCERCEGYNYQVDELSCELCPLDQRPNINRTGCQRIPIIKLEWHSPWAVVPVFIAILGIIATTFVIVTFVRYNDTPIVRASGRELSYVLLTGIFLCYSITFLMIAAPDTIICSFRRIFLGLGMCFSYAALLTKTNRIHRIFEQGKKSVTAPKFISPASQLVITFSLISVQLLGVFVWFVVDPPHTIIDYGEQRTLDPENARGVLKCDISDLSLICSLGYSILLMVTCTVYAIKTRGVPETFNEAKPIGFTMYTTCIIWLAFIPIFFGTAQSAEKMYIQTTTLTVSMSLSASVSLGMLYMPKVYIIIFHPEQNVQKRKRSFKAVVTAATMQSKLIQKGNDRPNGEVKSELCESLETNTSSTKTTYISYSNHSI
row,Compound,z-score
1,CCOC(=O)c1cnn2c1[nH]c(=O)c1ccccc12,1.54
2,C=CCc1ccc(OCC(O)CN2CCC(Cc3ccccc3)CC2)c(OC)c1 (stereo not drawn),-0.0438
3,CN(CC(O)COCc1ccc2c(c1)OCO2)C1CCCCC1 (stereo not drawn),0.00786
4,CCOC(=O)/C=c1\s/c(=C\c2ccc(C(F)(F)F)cc2)c(=O)n1CC(=O)NCc1ccco1,0.125
5,Cc1ccc(N(CC(=O)NCCc2ccc(F)cc2)S(=O)(=O)c2ccc(Cl)c([N+](=O)[O-])c2)c(C)c1,-0.23
6,O=C(Nc1ccc2c(c1)nc1n2CCOC1)c1ccccc1,0.045
7,O=C(c1ccc(COc2ccccc2Br)o1)N1CCCCCC1,-0.531
8,COc1ccc(CN2CNc3nc4ccccc4n3C2)cc1,0.000858
9,CC(=O)c1cccc(NS(=O)(=O)c2c(C)n[nH]c2C)c1,-0.26
10,CCC(C)(C)n1nnnc1C(c1cccnc1)N1CCN(c2cccc(C(F)(F)F)c2)CC1 (stereo not drawn),0.82
11,COc1cccc(-n2nnc3c(=O)n(CC(=O)NC4CCCC4)cnc32)c1,-0.263
12,Nc1nc2n(n1)C(c1ccco1)CC(c1ccc(F)cc1)N2 (stereo not drawn),0.268
13,CCCc1nn(C)c(C(=O)Nc2ccccc2)c1Cl,-0.39
14,CCCNC(=O)N1CCN(c2ncccn2)CC1,0.455
15,COCn1c(=O)c2c(nc(SC3=NCCS3)n2Cc2ccccc2C)n(COC)c1=O,-0.493
16,COc1ccccc1NC(=O)c1nnn(Cc2ccccc2)c1NC(=O)C(F)(F)F,0.00332
17,CCOC(=O)CC(NC(=O)c1ccco1)c1ccc(C)cc1 (stereo not drawn),0.281
18,O=C(COC(=O)c1cccs1)Nc1cccc(S(=O)(=O)N2CCOCC2)c1,-0.23
19,Cn1c(=O)n(C)c2cc(NS(=O)(=O)c3ccc4c(c3)CCCC4)ccc21,-0.126
20,COCCCn1c(SCC(=O)Nc2ccc3c(c2)OCCO3)nnc1-c1ccoc1C,-0.366
21,COCCNC(=O)C(c1ccccc1)N(CCOC)C(=O)Cn1nnc2ccccc21 (stereo not drawn),-0.461
22,CCOC(=O)c1ccc(NC(=O)CN2CCN(c3ccccc3)CC2)cc1,-0.154

row,Compound,z-score
1,CCC1CCCCN1C(=O)Nc1ccc(F)cc1 (stereo not drawn),0.507
2,COC(=O)c1ccc(CSc2nc3c(cnn3-c3ccccc3)c(=O)[nH]2)o1,-0.686
3,C=CCn1c(=O)c2c(nc(Br)n2Cc2ccccc2Cl)n(C)c1=O,-0.766
4,COC(=O)/C(=N/Nc1ccccc1)N1CCCc2ccccc21,-0.429
5,O=C(Cc1cccs1)Nc1nnc(Cc2ccc(F)cc2)s1,0.0854
6,O=C(NCc1ccc(Cl)cc1)c1ccccc1Oc1ccccc1,-0.72
7,Cc1ccnc(NC(=S)NC(=O)/C=C/c2ccco2)c1,active: 3.2
8,Cc1[nH]n(-c2ccccc2)c(=O)c1S(=O)(=O)c1ccccc1,-0.642
9,CC(=O)NC1=NC(=O)/C(=C/N2CCCCC2)S1,0.174
10,COc1ccc(NC(=O)CN2C(=O)CC(C)(C)S(=O)(=O)c3ccccc32)cc1,0.877
11,Cc1ccc(OC(=O)C2c3ccccc3Oc3ccccc32)cc1C,-0.276
12,COc1cccc2cc(C(=O)N3CCCCC3C)c(=O)oc12 (stereo not drawn),-0.11
13,CC(C)NC(=O)c1cc2c(C(F)(F)F)nn(C)c2s1,0.193
14,COc1ccc(C2CC(c3ccc(Cl)cc3)=NN2C(=O)c2cccc([N+](=O)[O-])c2)cc1 (stereo not drawn),-0.109
15,Cc1ccc(/C=C/C(=O)Nc2nnc(C)s2)o1,-0.106
16,COc1cccc(NC(=S)NN2CCN(C)CC2)c1,-0.264
17,O=C(CSc1ccccc1)Nc1ccc(N2CCOCC2)cc1,0.00596
18,Clc1ccc(Sc2cnc3ccccc3n2)cc1,0.162
19,COC(=O)N/N=C/c1cccc(OCCSc2ccc(Cl)cc2)c1,0.814
20,CS(=O)(=O)N(Cc1ccc(Cl)cc1)c1ccc(C(=O)NCCSCc2ccco2)cc1,-0.158
21,COc1ccc(C2CC(c3cccs3)=NN2C(=O)CSc2nc3ccccc3s2)cc1 (stereo not drawn),0.0016
22,CCOC(=O)c1c(C)[nH]c(C)c1C(=O)CSc1nnc(-c2cc(OC)c(OC)c(OC)c2)o1,0.427

row,Compound,z-score
1,Cn1c(N)c(N2CCCCC2)c(=O)n(CC(=O)Nc2ccc(Cl)c(Cl)c2)c1=O,0.48
2,O=C(CSc1ncnc2nc[nH]c12)c1ccccc1,0.198
3,CCC(CC)NC(=O)COC(=O)c1ccc(OCc2ccc(C(C)=O)cc2OC)c(OC)c1,-0.23
4,O=S(=O)(Nc1nc(CN2CCOCC2)nc2sc3c(c12)CCCC3)c1cc(F)ccc1F,-0.617
5,COc1ccc(C(CC(=O)O)NC(C)=O)cc1OC (stereo not drawn),-0.0457
6,Cc1ccc(-c2cn3cccnc3n2)cc1NC(=O)c1ccc(Br)o1,-0.146
7,CCOC(=O)C(CCCCCOc1ccccc1[N+](=O)[O-])C(=O)OCC,1.25
8,O=C(NCCc1ccccc1)C(c1ccncc1)N(C(=O)c1csnn1)C1CC1 (stereo not drawn),-0.113
9,CCCn1nnc(NC(=O)c2sc3ccccc3c2Cl)n1,0.0281
10,COC(=O)c1cc(NC(=O)Nc2cccc(Cl)c2)ccc1Cl,-0.309
11,O=C(CSc1nnc(CNc2cccc(C(F)(F)F)c2)n1Cc1ccco1)NCc1ccco1,1.19
12,O=C(NCCCCNC(=O)C1CCCC1)C1CCCC1,-0.493
13,C=CCNC(=O)NC(=O)COC(=O)CCCSc1nc2ccccc2[nH]1,-0.828
14,Cc1cccn2c(=O)c(/C=C(\C#N)C(=O)NCc3ccco3)c(N3CCCC(C)C3)nc12 (stereo not drawn),-0.634
15,COc1ccccc1NC(=O)CN1CCN(CC(=O)Nc2ccc(OCc3ccccc3)cc2)CC1,-0.223
16,COc1cccc(NC(=O)COc2ncnc3sc(C)c(C)c23)c1,0.102
17,COc1ccc(-n2cnc3sc(-c4ccccc4)cc3c2=O)cc1,0.458
18,O=C(Nc1ccc(NC(=O)c2ccco2)nc1)c1cccnc1,-0.0311
19,CCN(CC)C(=O)COc1cc(C)cc2oc(=O)cc(-c3ccccc3)c12,-0.189
20,O=C(CC1C(=O)NCCN1C(=S)Nc1ccccc1)Nc1ccc(F)cc1 (stereo not drawn),-0.305
21,CC(C)c1nnc(NC(=O)c2sc3ccccc3c2Cl)s1,0.175
22,CCOc1cc2c(cc1OCC)C(C(=O)O)C(c1cc(Br)c(O)c(OC)c1)N(C)C2=O (stereo not drawn),-0.122

row,Compound,z-score
1,CC(CC1C(C#N)=C(N)OC2=C1C(=O)CCC2)c1ccccc1 (stereo not drawn),0.816
2,CN(C)c1ccc(NC(=O)c2sc(SCC(=O)Nc3ccc(Br)cc3)nc2N)cc1,-0.172
3,Cc1ccc(-c2noc(CN(C(=O)CCCN3C(=O)c4ccccc4C3=O)C(C)C)n2)cc1,-0.0776
4,O=C(Nc1nnc(-c2cccs2)o1)c1cccc(F)c1,active: 4.44
5,O=C(Nc1ccc(Cl)cc1Cl)c1ccc(-c2ccccc2)cc1,-0.131
6,O=C(Nc1ccc(-c2nc3ccc(NC(=O)c4cccs4)cc3[nH]2)cc1)c1cccs1,-0.131
7,COc1ccc(OC)c(NC(=O)c2cc(S(=O)(=O)NCc3ccco3)ccc2F)c1,-0.0347
8,NS(=O)(=O)c1ccc(CCNc2ncnc3sccc23)cc1,-0.155
9,Cc1ccc2n(n1)c(=O)c(Cc1ccccc1)c([O-])[n+]2-c1ccccc1,-1.39
10,COc1ccc(-n2c(=O)c3ccccc3n(CC(=O)NC3CCCCC3)c2=O)cc1,-0.362
11,Cn1c(=O)c2c(-c3ccccc3)n(CCCN3CCOCC3)cc2n(C)c1=O,0.0216
12,COC(=O)c1ccccc1NC(=O)c1cc(-c2ccc(C)cc2)on1,0.0332
13,CCCC(=O)Nc1ccccc1N1CCN(C(=O)c2ccccc2)CC1,active: -3.9
14,Clc1ccc(CCNc2ncnc3nc[nH]c23)cc1,0.639
15,N/C(=N\OC(=O)Cc1ccccc1)c1cccnc1,-0.295
16,CC1Oc2ccccc2N(Cc2ccccc2F)C1=O (stereo not drawn),-0.302
17,Cc1cc([N+](=O)[O-])nn1CC(=O)NNC(=S)Nc1ccc([N+](=O)[O-])cc1,0.131
18,O=C(CSc1ccc2ccccc2c1)Nc1nc2ccccc2[nH]1,-0.0545
19,OC(COCC1COc2ccccc2O1)CN1CCc2ccccc2C1 (stereo not drawn),-0.334
20,Cn1nc(C(F)(F)F)c(C(=O)Nc2cccc(C(F)(F)F)c2)c1SCc1ccc(Cl)cc1,-0.279
21,O=C1c2ccccc2C(Nc2ccccc2)N1c1cccnc1 (stereo not drawn),-0.0961
22,COc1ccc(N2CCN(C(=O)CN(Cc3ccccc3)S(C)(=O)=O)CC2)cc1,0.0254

row,Compound,z-score
1,COc1ccc(NC(=O)c2sc(SCc3ccccc3)nc2N)cc1,-0.382
2,CCOc1ncccc1C(=O)OCC(=O)c1cccs1,-0.0632
3,CCn1c(SCCOc2ccc(OC)cc2)nnc1C(CO)NC(=O)c1ccc(OC)cc1 (stereo not drawn),-0.159
4,Cc1cccc(/C=C2/SC(=O)N(Cc3ccccc3)C2=O)n1,-0.0965
5,Cc1cccc(C(C#N)c2nc3ccccc3nc2C(F)(F)F)c1 (stereo not drawn),0.0785
6,O=C(CSc1nnc(CNC(=O)c2c(F)cccc2Cl)o1)Nc1ccc2c(c1)OCCO2,-0.241
7,Cc1ccc(Cn2nnc3c(=O)[nH]c(C4CCCN(C(=O)Nc5ccc(F)cc5)C4)nc32)cc1 (stereo not drawn),0.631
8,COc1ccc(Cl)cc1N1C(=O)CC(N2CCc3ccccc32)C1=O (stereo not drawn),0.108
9,Cc1ccc(-c2nnc(SCC(=O)N3CCCc4ccccc43)n2N)cc1,1.38
10,CC1CCCC(NC(=O)COC(=O)c2sc3ccccc3c2Cl)C1C (stereo not drawn),-0.187
11,COc1ccc(N(Cc2ccccc2)C(=O)c2ccccc2[N+](=O)[O-])cc1,-1.8
12,N#Cc1c(NC(=O)C2CC(c3c(F)cccc3Cl)=NO2)sc2c1CCC2 (stereo not drawn),-0.118
13,CCOC(=O)c1cc(C(=O)OCC)c2cc(Br)ccc2n1,-0.198
14,CCN(CC)c1ccc2cc(-c3nc4ccccc4n3C)c(=O)oc2c1,0.242
15,Cc1c(C(=O)N2CCc3ccccc32)oc2ccccc12,-0.0222
16,NC(=O)C1CCN(CC(=O)Nc2ccccc2Sc2ccc(Cl)cc2)CC1,-0.19
17,CCOC(=O)c1ccc(N2C(=O)CC(Sc3nc(O)c(CC)c(=O)[nH]3)C2=O)cc1 (stereo not drawn),0.325
18,Cc1ccccc1-n1c(SCC(=O)N/N=C/c2sccc2C)nc2ccccc2c1=O,0.0265
19,O=C(CSc1ncccn1)N1CCN(C(c2ccccc2)c2ccccc2)CC1,-0.203
20,O=c1c2ccccc2nc(SCc2nnc(-c3ccccc3Br)o2)n1-c1ccccc1,0.207
